# Data reported in the supplement of paper PMC9135407.
# Where “and” joins values, the source holds several entries; their conditions need not be identical. Identical values can stand only once. Counter-ions that a name gives are not always drawn. Among all 5,800 compounds or so, about 620 (11%) showed activity.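 The calls were made as follows: active = score above a cut-off or among the top three wells of a plate; in these data no inactive exceeds 0.85.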 The list shows a part of the results, in another mix than the full data.
# Tested on: primary human hepatic stellate cells (donor 1)
# Experiment: scaled lipid accumulation score (0 = DMSO-like, 1 = nortriptyline-like); higher = stronger HSC inactivation (lipid re-accumulation), active = hit call of the paper
# Details: 48 h
# [1] = library stock concentration: 10 mM
# [2] = library stock concentration: 3.33 mM
# [3] = library stock concentration: 1 mM
# [4] = library stock concentration: 400 uM
# [5] = library stock concentration: 2 mM
# [6] = library stock concentration: 80 uM
structure (smiles),measurement,setting,value
Cc1cc(C)c(Nc2ccnc(Nc3ccc(C#N)cc3)n2)c(C)c1 [Dapivirine (TMC120)],scaled lipid accumulation score,[1],active: 1.08
CN(C)CCOc1cc(-c2cn[nH]c2)ccc1NC(=O)C1COc2ccccc2O1 (stereo not given),scaled lipid accumulation score,[1],active: 1.08
CC(C)OC(=O)OCOP(=O)(CO[C@H](C)Cn1cnc2c(N)ncnc21)OCOC(=O)OC(C)C [Tenofovir Disoproxil Fumarate],scaled lipid accumulation score,[2],inactive: ≤ 0
same,scaled lipid accumulation score,[1],inactive: ≤ 0
Cl.O=C(NCCCCN1CCN(c2cccc(Cl)c2Cl)CC1)c1ccc2c(c1)Cc1ccccc1-2,scaled lipid accumulation score,[1],active: 0.884
Nc1cc(Cl)c(NC2=NCCN2)c(Cl)c1 [p-Aminoclonidine hydrochloride],scaled lipid accumulation score,[1],inactive: ≤ 0
Cn1cc(C2=C(c3ccc(Cl)cc3Cl)C(=O)NC2=O)c2ccccc21,scaled lipid accumulation score,[1],active: 1.37
NO [Hydroxylamine hydrochloride],scaled lipid accumulation score,[1],inactive: ≤ -0.07
Cc1cc(C)c(S(=O)(=O)Nc2ccccc2C(F)(F)F)c(C)c1,scaled lipid accumulation score,[1],inactive: 0.002
C(=C\c1ccccc1)/CN1CCN(C(c2ccccc2)c2ccccc2)CC1 [Cinnarazine],scaled lipid accumulation score,library stock concentration: 5.4 mM,inactive: 0.328
same,scaled lipid accumulation score,[1],inactive: 0.423
COc1cc2ncnc(Nc3ccc(F)c(Cl)c3)c2cc1OCCCN1CCOCC1 [Gefitinib (ZD1839)],scaled lipid accumulation score,[1],active: 1.05
"CCCCC/C=C\C=C\CCCCCCCCC(=O)O [10(E),12(Z)-Conjugated Linoleic Acid]",scaled lipid accumulation score,[3],inactive: 0.069
CC(C)[C@H](CO)Nc1nc(Nc2ccc(C(=O)O)c(Cl)c2)c2ncn(C(C)C)c2n1 [Purvalanol B],scaled lipid accumulation score,[1],inactive: ≤ -0.003
CC(C)[C@H](CO)Nc1nc(Nc2ccc(C(=O)O)c(Cl)c2)c2ncn(C(C)C)c2n1 [Purvalanol B (NG95) (0.4 mM)],scaled lipid accumulation score,[4],inactive: ≤ -0.005
CC(C)[C@H](CO)Nc1nc(Nc2ccc(C(=O)O)c(Cl)c2)c2ncn(C(C)C)c2n1 [Purvalanol B (NG95) (10 mM)],scaled lipid accumulation score,[1],inactive: ≤ -0.005
CC(C)[C@H](CO)Nc1nc(Nc2ccc(C(=O)O)c(Cl)c2)c2ncn(C(C)C)c2n1 [Purvalanol B (NG95) (2 mM)],scaled lipid accumulation score,[5],inactive: ≤ -0.005
Nc1nc(Cl)nc2c1ncn2[C@@H]1O[C@H](CO)[C@@H](O)[C@H]1O,scaled lipid accumulation score,[1],inactive: ≤ 0
Nc1nc(Cl)nc2c1ncn2[C@@H]1O[C@H](CO)[C@@H](O)[C@H]1O [2-Chloroadenosine],scaled lipid accumulation score,[1],inactive: 0.819
O=c1c(O[C@@H]2O[C@H](CO)[C@H](O)[C@H](O)[C@H]2O)c(-c2ccc(O)c(O)c2)oc2cc(O)cc(O)c12,scaled lipid accumulation score,library stock concentration: 8.8 mM,inactive: ≤ 0
CCCN(C/C=C/I)C1CCc2cccc(O)c2C1 (stereo not given) [8-Hydroxy-PIPAT oxalate],scaled lipid accumulation score,[1],inactive: 0.221
COc1ccc(-n2c(SCCCN3C(=O)c4cccc5cccc(c45)C3=O)nnc2-c2ccncc2)cc1,scaled lipid accumulation score,[2],inactive: ≤ -0.009
same,scaled lipid accumulation score,[1],inactive: 0.102
CCCCC[C@@H](O)/C=C/[C@@H]1[C@@H](C/C=C\CCCC(=O)O)[C@@H](O)C[C@H]1O [15(R)-Prostaglandin F2.alpha.],scaled lipid accumulation score,[3],inactive: ≤ 0
COc1cc2c(Nc3ccc(NC(=O)c4ccccc4)cc3)ncnc2cc1OCCCN1CCOCC1,scaled lipid accumulation score,[1],active: 1.14
C[C@@H]1C[C@H]2[C@@H]3CCC4=CC(=O)C=C[C@]4(C)[C@@]3(F)[C@@H](O)C[C@]2(C)[C@@]1(O)C(=O)COP(=O)(O)O [Dexamethasone sodium phosphate],scaled lipid accumulation score,[1],inactive: ≤ 0
OCc1ccccc1O[C@@H]1O[C@H](CO)[C@@H](O)[C@H](O)[C@H]1O [Salicin],scaled lipid accumulation score,[2],inactive: ≤ 0
same,scaled lipid accumulation score,library stock concentration: 7 mM,inactive: ≤ 0
same,scaled lipid accumulation score,[1],inactive: ≤ 0
Nc1ncnc2c1nc(Br)n2C1OC2COP(=O)(O)O[C@@H]2C1O (stereo not given in full) [8-Bromo-cAMP sodium],scaled lipid accumulation score,[1],inactive: ≤ 0
COc1ccc(NS(=O)(=O)c2ccc(I)cc2)cc1N1CCN(C)CC1,scaled lipid accumulation score,[1],inactive: 0.604
C=CC1=C(C(=O)O)N2C(=O)[C@@H](NC(=O)/C(=N\O)c3csc(N)n3)[C@H]2SC1 [Cefdinir],scaled lipid accumulation score,library stock concentration: 5.1 mM,inactive: ≤ 0
same,scaled lipid accumulation score,[1],inactive: ≤ -0.027
C=CC1=C(C(=O)O)N2C(=O)[C@@H](NC(=O)/C(=N\O)c3csc(N)n3)[C@H]2SC1,scaled lipid accumulation score,[1],inactive: ≤ 0
CN1C(CCl)Nc2cc(Cl)c(S(N)(=O)=O)cc2S1(=O)=O (stereo not given) [Methyclothiazide],scaled lipid accumulation score,[2],inactive: ≤ 0
same,scaled lipid accumulation score,[1],inactive: ≤ -0.001
CN1C(CCl)Nc2cc(Cl)c(S(N)(=O)=O)cc2S1(=O)=O (stereo not given),scaled lipid accumulation score,[1],inactive: 0.013
CCc1cc(Cl)c(OC)c(C(=O)NC[C@@H]2CCCN2CC)c1O.Cl [Eticlopride hydrochloride],scaled lipid accumulation score,[1],active: 0.978
CC(=O)NS(=O)(=O)c1ccc(N)cc1 [Sulfacetamide Sodium],scaled lipid accumulation score,[2],inactive: ≤ 0
same,scaled lipid accumulation score,[1],inactive: 0.052
CC(=O)NS(=O)(=O)c1ccc(N)cc1 [Sulfacetamide sodic hydrate],scaled lipid accumulation score,,inactive: 0.029
CC(=O)NS(=O)(=O)c1ccc(N)cc1 [Sulfacetamide],scaled lipid accumulation score,library stock concentration: 9.3 mM,inactive: ≤ 0
same,scaled lipid accumulation score,[1],inactive: ≤ 0
CCCCCCCC/C=C\CCCCCCCC(=O)N[C@@H](CO)C(=O)O [N-Oleoyl-L-Serine],scaled lipid accumulation score,[3],inactive: ≤ 0
Cc1cn([C@H]2C=C[C@@H](CO)O2)c(=O)[nH]c1=O [Stavudine (d4T)],scaled lipid accumulation score,[2],inactive: ≤ 0
same,scaled lipid accumulation score,[1],inactive: ≤ 0
Cc1cn([C@H]2C=C[C@@H](CO)O2)c(=O)[nH]c1=O,scaled lipid accumulation score,[1],inactive: ≤ 0
Cc1ccc(S(=O)(=O)Cc2nc(-c3ccc(C(=O)NCc4cccnc4)cc3)oc2C)cc1,scaled lipid accumulation score,[2],inactive: ≤ -0.009
same,scaled lipid accumulation score,[1],inactive: 0.053
O=C(Nc1cccc(C(=O)Nc2ccc(S(=O)(=O)O)c3cc(S(=O)(=O)O)cc(S(=O)(=O)O)c23)c1)Nc1cccc(C(=O)Nc2ccc(S(=O)(=O)O)c3cc(S(=O)(=O)O)cc(S(=O)(=O)O)c23)c1,scaled lipid accumulation score,[1],inactive: 0.313
C=CC(=O)Nc1cc(Nc2nccc(-c3cn(C)c4ccccc34)n2)c(OC)cc1N(C)CCN(C)C,scaled lipid accumulation score,[2],active: 0.983
"CCCCC/C=C\C/C=C\CC1OC1C/C=C\CCCC(=O)O (stereo not given) [8,9-Epoxyeicosatrienoic acid]",scaled lipid accumulation score,library stock concentration: 100 uM,inactive: ≤ -0.021
COc1cccc2c1C(=O)c1c(O)c3c(c(O)c1C2=O)C[C@@](O)(C(C)=O)C[C@@H]3O[C@H]1C[C@H](N)[C@H](O)[C@H](C)O1 [Daunorubicin HCl],scaled lipid accumulation score,[2],inactive: 0.314
same,scaled lipid accumulation score,[1],inactive: 0.169
COc1cccc2c1C(=O)c1c(O)c3c(c(O)c1C2=O)C[C@@](O)(C(C)=O)C[C@@H]3O[C@H]1C[C@H](N)[C@H](O)[C@H](C)O1,scaled lipid accumulation score,[1],inactive: 0.004
COc1cccc2c1C(=O)c1c(O)c3c(c(O)c1C2=O)C[C@@](O)(C(C)=O)C[C@@H]3O[C@H]1C[C@H](N)[C@H](O)[C@H](C)O1 [Daunorubicin hydrochloride],scaled lipid accumulation score,,inactive: ≤ 0
same,scaled lipid accumulation score,[1],inactive: 0.391
CNC(=O)c1ccccc1Nc1cc(Nc2ccc(N3CCOCC3)cc2OC)ncc1C(F)(F)F,scaled lipid accumulation score,[6],inactive: 0.011
same,scaled lipid accumulation score,[4],inactive: ≤ 0
same,scaled lipid accumulation score,[5],inactive: 0.034
same,scaled lipid accumulation score,[1],inactive: 0.007
O=C(O)CCC/C=C\C[C@@H]1[C@@H](/C=C/[C@@H](O)COc2ccccc2)[C@H](O)C[C@@H]1O [16-phenoxy tetranor Prostaglandin F2.alpha.],scaled lipid accumulation score,[3],inactive: ≤ 0
CNC(=O)c1cc(Oc2ccc(NC(=O)Nc3ccc(Cl)c(C(F)(F)F)c3)cc2)ccn1,scaled lipid accumulation score,[6],inactive: 0.04
same,scaled lipid accumulation score,[4],inactive: 0.075
same,scaled lipid accumulation score,[5],inactive: ≤ 0
same,scaled lipid accumulation score,[1],inactive: 0.672
CNC(=O)c1cc(Oc2ccc(NC(=O)Nc3ccc(Cl)c(C(F)(F)F)c3)cc2)ccn1 [Sorafenib Tosylate],scaled lipid accumulation score,[2],inactive: 0.005
same,scaled lipid accumulation score,[1],inactive: ≤ 0
"CNC(=O)c1cc(Oc2ccc(NC(=O)Nc3ccc(Cl)c(C(F)(F)F)c3)cc2)ccn1 [Sorafenib  (Nexavar, BAY43-9006) (2 mM)]",scaled lipid accumulation score,[5],inactive: 0.299
"CNC(=O)c1cc(Oc2ccc(NC(=O)Nc3ccc(Cl)c(C(F)(F)F)c3)cc2)ccn1 [Sorafenib  (Nexavar, BAY43-9006) (0.4 mM)]",scaled lipid accumulation score,[4],inactive: 0.021
CNC(=O)c1cc(Oc2ccc(NC(=O)Nc3ccc(Cl)c(C(F)(F)F)c3)cc2)ccn1 [Sorafenib],scaled lipid accumulation score,[2],inactive: ≤ 0
same,scaled lipid accumulation score,[1],inactive: ≤ 0
CO[C@@H]1[C@@H](O[C@@H]2O[C@H](C)[C@@H](O[C@H]3C[C@@](C)(O)[C@@H](OC(=O)CC(C)C)[C@H](C)O3)[C@H](N(C)C)[C@H]2O)[C@@H](CC=O)C[C@@H](C)[C@@H](O)/C=C/C=C/C[C@@H](C)OC(=O)C[C@H]1OC(C)=O [Josamycin],scaled lipid accumulation score,,inactive: ≤ 0
NC(N)=NC(=O)c1nc(Cl)c(N)nc1N,scaled lipid accumulation score,[1],inactive: ≤ 0
O=c1oc2c(O)c(O)cc3c(=O)oc4c(O)c(O)cc1c4c23 [Ellagic acid],scaled lipid accumulation score,[6],inactive: ≤ 0
same,scaled lipid accumulation score,[4],inactive: ≤ 0
same,scaled lipid accumulation score,[5],inactive: ≤ 0
same,scaled lipid accumulation score,[1],inactive: ≤ 0
CC(=O)CC(c1ccccc1)c1c(O)c2ccccc2oc1=O (stereo not given),scaled lipid accumulation score,[1],inactive: ≤ 0
CC(=O)CC(c1ccccc1)c1c(O)c2ccccc2oc1=O (stereo not given) [Warfarin],scaled lipid accumulation score,[1],inactive: ≤ 0
CC(=O)CC(c1ccccc1)c1c(O)c2ccccc2oc1=O (stereo not given) [(?)-Warfarin],scaled lipid accumulation score,[3],inactive: ≤ 0
CN(c1ccccc1CNc1nc(Nc2ccc3c(c2)CC(=O)N3)ncc1C(F)(F)F)S(C)(=O)=O,scaled lipid accumulation score,[6],inactive: 0.012
same,scaled lipid accumulation score,[4],inactive: 0.01 and inactive: ≤ -0.005
same,scaled lipid accumulation score,[5],inactive: 0.006 and inactive: 0.062
same,scaled lipid accumulation score,[1],inactive: 0.25 and inactive: 0.064
